# Results from PubChem BioAssay (NCATS).
# Several values for one entry are separate records, joined by “and”; a condition that tells them apart may be missing. Identical values can stand only once. The shares of active, inactive and inconclusive entries below differ from those in the screen. A potency beside an inconclusive call is a rough fit, not a confirmed value. Activity calls are given as the source filed them. Calls follow the shape of the dose curve; as a rule, active = well fitted curve in the direction sought with a large enough effect; inconclusive = small, poorly fitted or top-dose-only effect, or another doubt; inactive = no such curve, though single readings can be large; an effect the other way counts as inactive or inconclusive.
# Legend:
# [1] = biological target: Phospholipid hydroperoxide glutathione peroxidase GPX4 (Homo sapiens) (UniProt P36969); assay: Primary qHTS Assay for Inhibitors of Recombinant Selenoprotein Glutathione Peroxidase 4 (GPX4) (AID 1845192); also: nearly all actives have a fitted effect of over 65% in size
# Summary of the method: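 GR-coupled assay: recombinant GPX4 preincubated 30 min with compound at room temperature; final 200 nM GPX4, 1 mM GSH, 0.5 mM cumene hydroperoxide, 0.5 mM NADPH, 100 nM GR, 0.01% BSA, pH 7.5 Tris. NADPH fluorescence (340/450 nm) read at 0 and 15 min.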
# [2] = Quantitative High-Throughput drug screen in 47 multiple myeloma cell lines against the NCATS MIPE library collection: FR4_PLB cell viability assay (AID 1918924; also: nearly all actives have a fitted effect of over 35% in size)
# Summary of the method: (§1)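 Myeloma cell lines, 500 cells per well, exposed to MIPE 4.0 library compounds for 48 h at 37C, 5% CO2. Viability from ATP by CellTiter-Glo luminescence; normalised to DMSO (100%) and media-only (0%) wells.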
# [3] = Quantitative High-Throughput drug screen in 47 multiple myeloma cell lines against the NCATS MIPE library collection: Delta47_JCRB cell viability assay (AID 1918925; also: nearly all actives have a fitted effect of over 45% in size); conditions: Delta47 myeloma viability, CellTiter-Glo ATP, 48 h; viability (% of DMSO): at 45.8 µM (top of the series)
# Summary of the method: as §1
# [4] = Quantitative High-Throughput drug screen in 47 multiple myeloma cell lines against the NCATS MIPE library collection: EJM_DSMZ cell viability assay (AID 1918926; also: nearly all actives have a fitted effect of over 30% in size)
# Summary of the method: as §1
# [5] = test system: Nanoluciferase (engineered Oplophorus gracilirostris luciferase); assay: Primary Nanoluciferase (NLuc) qHTS assay for identification of artifact compounds. (AID 1845222); conditions: NLuc-conditioned medium, Nano-Glo luminescence, 5 min;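 also: NLuc secreted into diluted conditioned medium of S16 cells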
# Summary of the method: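 S16 cell supernatant NLuc, 1:55; cpds qHTS; 15 min RT dark; Nano-Glo substrate 1:100, 5 min; luminescence; Hill fit of % inhibition.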
# [6] = biological target: Luciferin 4-monooxygenase (Photinus pyralis) (UniProt P08659); assay: Primary firefly luciferase (FLuc) qHTS assay for identification of artifact compounds. (AID 1845220); also: nearly all actives have a fitted effect of over 60% in size
# Summary of the method: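 Enzymatic FLuc inhibition assay: compounds pre-exposed to luciferin/ATP (10 uM each) for 15 min, then purified P. pyralis enzyme at 10 nM added. Read-out: luminescence at 5 min.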
# Potency is read from the fitted curve at half-maximal effect; tags tell the direction and shape of the fitted curve.
# Sequence of UniProt P36969 (P36969 whole entry, looked up): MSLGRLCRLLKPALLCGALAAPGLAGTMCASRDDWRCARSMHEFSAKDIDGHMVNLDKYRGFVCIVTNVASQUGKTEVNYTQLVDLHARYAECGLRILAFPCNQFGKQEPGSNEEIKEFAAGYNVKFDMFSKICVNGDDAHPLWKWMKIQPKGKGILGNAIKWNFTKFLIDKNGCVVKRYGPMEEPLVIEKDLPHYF
smiles,measurement,setting,value
CN(C)CCN(C)C(=O)c1ccc(NC(=O)Nc2ccc(-c3nc(N4CCOCC4)c4ccn(CC(F)(F)F)c4n3)cc2)cc1,Potency,[1],"inconclusive: 25.5 µM [inhibitor, single point]"
same,Potency,[2],active: 0.0372 µM
COc1ccc(-c2oc3c(CC=C(C)C)c(O)cc(O)c3c(=O)c2O)cc1,Potency,[1],"inconclusive: 12.8 µM [inhibitor, partial curve]"
same,Potency,[3],"inconclusive: 18.7 µM [cytotoxic, partial curve]"
O=C(CCCN1CCN(c2ccc(F)cc2)CC1)NC1c2ccccc2CSc2ccccc21 (stereo unspecified),Potency,[1],"inconclusive: 22.7 µM [inhibitor, partial curve]"
same,Potency,[2],"inconclusive: 20.9 µM [cytotoxic, partial curve]"
same,Potency,[4],"inconclusive: 5.26 µM [cytotoxic, partial curve]"
N#Cc1c(O)c2c(-c3ccc(-c4ccccc4O)cc3)csc2[nH]c1=O,Potency,[1],"inconclusive: 22.7 µM [inhibitor, single point]"
same,Potency,[5],"inconclusive: 23.9 µM [inhibitor, partial curve]"
same,Potency,[2],"inconclusive: 0.0148 µM [rising, full curve, poor fit]"
same,Potency,[4],"inconclusive: 33.2 µM [cytotoxic, single point]"
O=C(O)Cn1nnc(-c2cc(N3CCC(Oc4cc(F)ccc4Br)CC3)no2)n1,Potency,[1],"inconclusive: 28.6 µM [inhibitor, single point]"
same,Potency,[3],inactive
Oc1cccc(-c2nc(N3CCOCC3)c3oc4ncccc4c3n2)c1,Potency,[1],"inconclusive: 25.5 µM [inhibitor, single point]"
same,Potency,[2],active: 0.0762 µM
CS(=O)(=O)c1ccc(C(=O)Nc2ccc(Cl)c(-c3ccccn3)c2)c(Cl)c1,Potency,[1],"inconclusive: 28.2 µM [inhibitor, partial curve, poor fit]"
same,Potency,[2],inactive
O=C(O)c1ccc(Nc2ncc3c(n2)-c2ccc(Cl)cc2C(c2c(F)cccc2F)=NC3)cc1,Potency,[1],"inconclusive: 18 µM [inhibitor, partial curve]"
same,Potency,[2],inactive
CC(C(=O)O)c1ccc2c(c1)CC(=O)c1ccccc1S2 (stereo unspecified),Potency,[1],"inconclusive: 14.3 µM [inhibitor, partial curve]"
same,Potency,[3],inactive
same,Potency,[4],inactive
CCN1CCN(Cc2ccc(-c3cc4c(N[C@H](C)c5ccccc5)ncnc4[nH]3)cc2)CC1,Potency,[1],active: 22.7 µM
same,Potency,[2],"inconclusive: 1.18 µM [cytotoxic, full curve, poor fit]"
same,Potency,[4],"inconclusive: 0.418 µM [cytotoxic, partial curve]"
O=S(=O)(O)CC(S)CS (stereo unspecified),Potency,[1],active: 7.08 µM
Cc1c(C)c2c(c(C)c1O)CCC(C)(COc1ccc(CC3SC(=O)NC3=O)cc1)O2 (stereo unspecified),Potency,[1],"inconclusive: 20.2 µM [inhibitor, partial curve]"
same,Potency,[2],inactive
same,Potency,[3],"inconclusive: 37.2 µM [cytotoxic, single point]"
same,Potency,[4],inactive
CC(C)CN(C[C@@H](O)[C@H](Cc1ccccc1)NC(=O)O[C@H]1CO[C@H]2OCC[C@H]21)S(=O)(=O)c1ccc(N)cc1,Potency,[1],"inconclusive: 28.2 µM [inhibitor, single point]"
same,Potency,[4],active: 5.9 µM
Cn1c(=O)c(-c2c(Cl)cccc2Cl)cc2cnc(Nc3cccc(C(=O)O)c3)nc21,Potency,[6],active: 0.379 µM
same,Potency,[2],active: 5.26 µM
same,Potency,[4],"inconclusive: 4.69 µM [cytotoxic, full curve]"
CCC[C@H](Nc1nc(-c2ccc(NC(=O)NCC)c(OC)c2)ncc1C)c1cccnc1,Potency,[1],"inconclusive: 0.018 µM [inhibitor, full curve, poor fit]"
same,Potency,[2],"inconclusive: 0.0042 µM [cytotoxic, full curve]"
same,Potency,[4],"inconclusive: 0.0132 µM [cytotoxic, full curve]"
COc1ccc(-c2cc3c(C)nc(N)nc3n(C3CCC(OCCO)CC3)c2=O)cn1 (stereo unspecified),Potency,[1],"inconclusive: 3.21 µM [inhibitor, partial curve, poor fit] and inconclusive: 2.27 µM [inhibitor, partial curve, poor fit]"
same,Potency,[2],active: 0.0332 µM
O=S(=O)(O)c1ccc2cc(N=Nc3cc(S(=O)(=O)O)c4cccnc4c3O)ccc2c1,Potency,[1],"inconclusive: 18 µM [inhibitor, partial curve]"
same,Potency,[6],"inconclusive: 37.9 µM [inhibitor, single point]"
same,Potency,[5],"inconclusive: 23.9 µM [inhibitor, partial curve]"
same,Potency,[2],"inconclusive: 18.7 µM [cytotoxic, partial curve, poor fit]"
same,Potency,[3],"inconclusive: 4.69 µM [cytotoxic, full curve, poor fit]"
NC1=N[C@H]2[C@H](CS[C@H]2CCCCC(=O)O)N1,Potency,[1],"inconclusive: 0.0099 µM [inhibitor, full curve, poor fit]"
same,Potency,[3],"inconclusive: 0.0072 µM [cytotoxic, full curve, poor fit]"
Cc1cc(NC(=O)Nc2ccc(N(C)C)cc2)c2cc(F)cc(F)c2n1,Potency,[1],"inconclusive: 11.1 µM [inhibitor, partial curve, poor fit]"
same,Potency,[2],"inconclusive: 14.8 µM [cytotoxic, partial curve]"
same,Potency,[3],"inconclusive: 0.0469 µM [cytotoxic, full curve, poor fit]"
same,Potency,[4],inactive
CN1CCc2c(n(Cc3ccc(C(=O)NO)cc3)c3ccccc23)C1,Potency,[1],"inconclusive: 22.7 µM [inhibitor, partial curve, poor fit]"
same,Potency,[2],active: 16.6 µM
same,Potency,[4],"inconclusive: 20.9 µM [cytotoxic, partial curve, poor fit]"
CCC(C)(C)C(=O)O[C@H]1C[C@@H](C)C=C2C=C[C@H](C)[C@H](CC[C@@H]3C[C@@H](O)CC(=O)O3)[C@H]21,Potency,[1],"inconclusive: 28.6 µM [inhibitor, single point]"
same,Potency,[2],"inconclusive: 26.4 µM [cytotoxic, single point]"
Cc1ccccc1C(=O)Nc1ccc(C(=O)N2CCCC(O)c3cc(Cl)ccc32)c(C)c1 (stereo unspecified),Potency,[1],"inconclusive: 12.6 µM [inhibitor, partial curve]"
same,Potency,[3],inactive
C#Cc1cccc(Nc2ncnc3cc(OC)c(OCCCCCCC(=O)NO)cc23)c1,Potency,[1],inactive
same,Potency,[3],active: 0.0662 µM
Cc1cc(SCc2sc(-c3ccc(C(F)(F)F)cc3)nc2C)ccc1OCC(=O)O,Potency,[1],"inconclusive: 25.5 µM [inhibitor, single point]"
same,Potency,[6],"inconclusive: 37.9 µM [inhibitor, single point]"
same,Potency,[2],inactive
same,Potency,[3],"inconclusive: 20.9 µM [cytotoxic, single point]"
Cc1ccc(NC(=O)c2cccc(N(C)C)c2)cc1NC(=O)c1ccc(O)cc1,Potency,[1],"inconclusive: 32.1 µM [inhibitor, single point]"
same,Potency,[2],"inconclusive: 20.9 µM [cytotoxic, partial curve]"
same,Potency,[4],"inconclusive: 20.9 µM [cytotoxic, partial curve]"
OCc1ccc(-c2nn(Cc3ccccc3)c3ccccc23)o1,Potency,[1],"inconclusive: 20.2 µM [inhibitor, single point]"
same,Potency,[3],active: 20.9 µM
COc1cc2ncnc(Nc3cccc(Cl)c3)c2cc1OC,Potency,[1],"inconclusive: 36 µM [inhibitor, partial curve, poor fit]"
same,Potency,[3],"inconclusive: 0.264 µM [cytotoxic, full curve, poor fit]"
same,Potency,[4],active: 0.0418 µM
Cc1cc([C@@H](C)Nc2ccccc2C(=O)O)c2nc(N3CCOCC3)cc(=O)n2c1,Potency,[1],"inconclusive: 20.2 µM [inhibitor, single point]"
same,Potency,[2],"inconclusive: 42.9 µM [cytotoxic, partial curve]"
same,Potency,[4],"inconclusive: 42.9 µM [cytotoxic, partial curve]"
COc1cccc2c(NCc3ccccc3)nc(-n3c(N)nc4ccccc43)nc12,Potency,[6],inactive
same,Potency,[4],active: 6.62 µM
CCOC(=O)C1=C(C)NC2=C(C(=O)CC(C)(C)C2)C1c1ccc(-c2ccccc2)cc1 (stereo unspecified),Potency,[4],"inconclusive: 16.6 µM [cytotoxic, partial curve]"
CCn1c(-c2nonc2N)nc2cncc(CNC3CCNCC3)c21,Potency,[3],"inconclusive: 16.6 µM [cytotoxic, partial curve, poor fit]"
CC(C)C[C@H](NC(=O)[C@H](Cc1ccccc1)NC(=O)c1cnccn1)B(O)O,viability (% of DMSO),[3],inconclusive: 3.44% [cytotoxic]
COc1cc(C=CC(=O)CC(=O)C=Cc2ccc(O)c(OC)c2)ccc1O,Potency,[2],active: 10.8 µM
same,Potency,[4],active: 21.5 µM
COc1ccccc1[C@H](c1cccc2ccccc12)[C@@](C)(C#N)C(=O)N1CCC(c2cccc(C(F)(F)F)c2)CC1,Potency,[2],"inconclusive: 9.35 µM [cytotoxic, full curve, poor fit]"
same,Potency,[4],active: 13.2 µM
CCCc1nc(C)c2c(=O)[nH]c(-c3cc(S(=O)(=O)N4CCN(CC)CC4)ccc3OCC)nn12,Potency,[3],active: 5.9 µM
COC(=O)[C@@H]1CC2=CC(=O)CC[C@]2(C)[C@@]23O[C@@H]2C[C@@]2(C)[C@H](CC[C@@]24CCC(=O)O4)[C@@H]13,Potency,[3],"inconclusive: 0.0019 µM [rising, full curve, poor fit]"
CC(C)Oc1cc(Nc2nc(N[C@@H](C)c3ccc(F)cn3)ncc2Cl)[nH]n1,Potency,[2],"inconclusive: 37.2 µM [cytotoxic, single point]"
same,Potency,[4],active: 20.9 µM
COc1cnc(NS(=O)(=O)c2ccc(N)cc2)nc1,Potency,[3],"inconclusive: 37.2 µM [cytotoxic, single point]"
Cn1cc(C=CC(=O)c2cccc(F)c2)cc1C=CC(=O)NO,Potency,[2],"inconclusive: 13.2 µM [cytotoxic, partial curve]"
same,Potency,[4],"inconclusive: 20.9 µM [cytotoxic, partial curve]"
